Experimental data taken from US20160052983A1 (ALKERMES, published 2016).
Read-outs that look alike come from different tables or passages of the source.

T1: IL-1RI_Fc (fusion protein), immobilized mouse IL1RI receptor (mouse, UniProt P13504 20-338, limits assumed)
T1 construct: not shown: Fc part; captured with the Human Antibody Capture Kit
T1 sequence (looked up): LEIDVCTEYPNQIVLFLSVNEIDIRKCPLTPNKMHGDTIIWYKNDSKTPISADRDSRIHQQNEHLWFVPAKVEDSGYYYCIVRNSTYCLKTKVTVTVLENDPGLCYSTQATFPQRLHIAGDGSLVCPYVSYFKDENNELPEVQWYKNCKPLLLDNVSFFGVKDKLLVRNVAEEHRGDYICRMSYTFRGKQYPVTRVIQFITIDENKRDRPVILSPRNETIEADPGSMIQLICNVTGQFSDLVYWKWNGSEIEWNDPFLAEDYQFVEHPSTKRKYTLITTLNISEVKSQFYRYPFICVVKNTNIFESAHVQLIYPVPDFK

B1: RDB1816 (IL-1Ra fused to 12 MUC20 tandem repeats, C-terminal His-tag) (other)
chain: [letters of about 150 residues not shown]GGGGSASSESSASSDGPHPVITESRASSESSASSDGPHPVITESRGGGGSASSESSASSDGPHPVITESRASSESSASSDGPHPVITESRGGGGSASSESSASSDGPHPVITESRASSESSASSDGPHPVITESRGGGGSASSESSASSDGPHPVITESRASSESSASSDGPHPVITESRGGGGSASSESSASSDGPHPVITESRASSESSASSDGPHPVITESRGGGGSASSESSASSDGPHPVITESRASSESSASSDGPHPVITESRGSSHHHHHH
notes: Expressed in CHO cells and heavily glycosylated on the mucin domain; also called IL1Ra 12TR; 12TR
B2: RDB1815 (IL-1Ra fused to 8 MUC20 tandem repeats, C-terminal His-tag) (other)
chain: [letters of about 150 residues not shown]GGGGSASSESSASSDGPHPVITESRASSESSASSDGPHPVITESRGGGGSASSESSASSDGPHPVITESRASSESSASSDGPHPVITESRGGGGSASSESSASSDGPHPVITESRASSESSASSDGPHPVITESRGGGGSASSESSASSDGPHPVITESRASSESSASSDGPHPVITESRGSSHHHHHH
notes: Expressed in CHO cells and heavily glycosylated on the mucin domain; also called IL1Ra 8TR; 8TR

How the values were obtained:
[1] = target: T1, IL-1RI_Fc (fusion protein), immobilized …; test: SPR (Biacore), IL-1RI_Fc captured on the chip with the Human Antibody Capture Kit, analyte injected at 5 rising concentrations from 0.24 to 20 nM
[2] = target: T1, IL-1RI_Fc (fusion protein), immobilized …; test: as above; remark: listed apart in the source

Binder	koff [1] [s⁻¹]	kon [1] [M⁻¹ s⁻¹]	koff [2] [s⁻¹]	kon [2] [M⁻¹ s⁻¹]
B1	0.00014	150000	–	–
B2	–	–	0.00014	850000
